# Test results from the RNAGym collection of RNA variant scans (doi:10.1093/nar/gkz1192).
# Read counts are not given, so values of variants with three or more changes are uncertain.
# B1: CPEB3 Ribozyme (parent)
# chain: UAACAGGGGGCCACAGCAGAAGCGUUCACGUCGCAGCCCCUGUCAGAUUCUGGUGAAUCUGCGAAUUCUGCUGUAUAUCUC
# Variants of: B1
# Assay: self-cleavage, relative activity (ratio to wild type); higher = more cleavage; in vitro, sequencing
# Summary of the method: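 For each CPEB3 ribozyme variant, relative activity is its cleaved/total read fraction divided by the unmutated ribozyme's. Barcoded error-prone PCR libraries were transcribed by T7 RNA polymerase (5 hours, 37°C) and held in DNase I for 15 min before an EDTA stop, with cleavage occurring throughout. Template-switching reverse transcription and Illumina sequencing were used to read the RNAs. A 5-read minimum applied, and results are the mean of three batches.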
row,Variant,self-cleavage
1,UAACAGGGGGCCUCAGCGGAAGCGUUCACGUCGCAGCCCCUGUCAGAUUCUGGCGAAUCUGCGAAUUCUGCUGUAUAUCUC,0.25
2,UAACAGGGGGCCUCAGCUGAAGCGUUCACGUCGCAGUCCCCGUCCGAUUCUGGUGAAUCUGCGAAUGCUGCUGUAUAUCUC,0.09
3,UAACAGGGGGCCUCAGCUGAAGCGUUCACGUCGCAGCCUCUGUCAGAUUCUGGUGAAUCUGCGAAUUCUGCUGUAUAUCUC,0.1
4,UAACAGGGGGCCUCAGCUGAAGCGCUCACGUCGCAGCCCCUGUCAGAUCCUGGUGAAUCUGCGAAUUCUGCUGUAUAUCUC,0.03
5,UAACAGGGGGCCUCAGCUGAAGCGUCCUCGUCGCAGCCCCUGUCAGAUUCUGGUGAAUCUGCGAAUUCUGCUGUAUAUCUC,0.1
6,UAACAGGGGGCCUCAGCUGAAGCGUUCACGUCGCAGCCCCUGCCAGAUUCUGGUGAAUCUGCGAAUUCUGCUGUAUAUCUC,0.16
7,UAACAGGGGGCCUCAGCUGAAGCGUUCACGUCGCAGCCCCUGUCAGAUCCUGGUGAAUCUGCGAAUUCUGCUGUAUAUCUC,0.25
8,UAACAGGGGGCCUCAGCUGAAGCGUUCACGUCGCAGCCCCUGUCAGAUUCUGGUGAAUCCGUGUAUUCUGCUGUAUACCUC,0.11
9,UAACAGGGGGCCUCAGCAGGAGCGUUCACGUCGCGGCCCCUGUCAGAUCCAGGUGAACCUGCGAAUUCUGCUGUAUAUCCC,0.63
10,UAACAGGGGGCCUCAGCAGGAGCGUUCACGUCGCAGCCCCUGUCAGGUUCUGGUGAAUCUGCGAAUUCUGCUGUAUAUCUC,0.95
11,UAACAGGGGGCCUCAGCAGGAGCGUUCACGUCGCAGCCCCUGUCAGGUUCUGGAGAAUCUGCAAAUUCUGCUGUAUAUCUC,0.68
12,UAACAGGGGGCCUCAGCAGGAGCGUUCAUGUCGCAGCCCCUGUCAGAUUCUGGUGAAUCUGCGAAUUCUGCUGUAUAUCUC,0.19
13,UAACAGGGGGCCUCAGCAGGAGCGUUCACGUGGCAGCCCCUGUCAGAUUCUGGAGAGUCUGCGGGUUCUGCUGUAUAUCUC,0.02
14,UAACAGGGGGCCUCAGCAGGAGCGUUCACGUCGUAGCCCCUGUCAGAUUCUGGUGAAUCUGCUAAUUCCGCUGUAUAUCUC,0.1
15,UAACAGGGGGCCUCAGCAGGACCGUUCACGUCGCAGCCCCAGUCUGAUUCUGGAGAAUCUGCGAAUUCUGCUGUAUAUCUC,0.09
16,UAACAGGGGGCCUCAGCAGGAGCGUUCACGUCGCAGCCCCUGUCAAAUUCUGGUGAAUCUGCGAAUUCUGCUGUAUAUCUC,0.26
17,UAACAGGGGGCCUCAGCAGGAGCGAUCACGUCGCAGCCCCUGUCAGAUUCUGGUGAAUCUGCGAAUUCUGGUGUUUACCUC,0.09

row,Variant,self-cleavage
1,UAACAGGGGGCCUCAGCAGGAGCGCUCACGUCGCAGCCCCUGCCGGAUUCUGGUGAAUCUGCGAAUUCAGCUGUAUAUCUC,0.1
2,UAACAGGGGGCCUCAGCAGGAGCGCUCACGUCGCAGCCCCUGCCAGAUUCUGGUGAGUCUGCGAAUUCUGCUGUAUAUCCC,0.06
3,UAACAGGGGGCCUCAGCAGGAGCGUCCUCGUCGCAGCCCCUGUCAGAUUCUGGUGAAUCUGCGAAUUCUACUGGGUAUCUC,0.1
4,UAACAGGGGGCCUCAGCAGGAGCGUUCACGACGCAGCCCCUGUCAGAUUCUGGUGAAUCUGCGAAUUCUGCCGUAUAUCUC,0.26
5,UAACAGGGGGCCUCAGCAGGAGCGUUCACGCCGCAGCCCCUGUCAGAUUCUGGUGAAUCUGCGAAUUCUGCUGUAUAUCUC,0.56
6,UAACAGGGGGCCUCAGCAGGAGCGUUCACGUCGCAGCCCCUGUCAGAUUCUGGUGAAUCAGCGAAUUCUGCUGUAUCUCUC,0.18
7,UAACAGGGGGCCUCAGCAGUAGCGUUCGCGUCGCAGCCCCUGUCAGAUUCUGGCGAAUCUGCGAAUUCUGCUGUAUAUAUC,0.11
8,UAACAGGGGGCCUCAGCAGUAGCGUUCACGUCGCAGCCCCUGUCAGGUUCUGGUGAAUCAGCGAAUUCAGCCGUAUACCUC,0.05
9,UAACAGGGGGCCUCAGCAGUAGCGUCCACGUCGCGGCCCCUGUCAGAUUCUGGUGAAUCUGCGAAUUCUGCUGUAUAUCUC,0.31
10,UAACAGGGGGCCUCAGCAGACGCGUUCACGUCGCAGCCCCUGUCAGAUUCUGGUGAAUCUGCGAAUUCUGCUGUAUAUCUU,0.27
11,UAACAGGGGGCCUCAGCAGAGGCGUUCGCGUCGCAGCCCCUGUCAGAUUCUGGUGAAUCUGCGAACUCUGCUGUAUACCUC,0.63
12,UAACAGGGGGCCUCAGCAGAGGCGUUCACGUCGCAGCCCCUGUCAGGUUCUGGUGAAUCUGCGUAUUCUGCUGUGUAUCUC,0.1
13,UAACAGGGGGCCUCAGCAGAGGCGUUCACAUCGCAGCCCCUGUCAGUUUCUGGUGAAUCUGCGAAUUCUGCUGUAUAUCUC,0.12
14,UAACAGGGGGCCUCAGCAGAGGCGUUCACGUCGCAGCCCCUAUCAGAUUCUGGUGGGCCUGCGAAUUAUGCUGUAUAUCUC,0.09
15,UAACAGGGGGCCUCAGCAGAGGCGUUCACGUCGCAGCCCCUGUCAGAUUCUGGUGAAUCUGCAAAUUGUGCUGUAUAUCUC,0.09
16,UAACAGGGGGCCUCAGCAGAGGCGCUCACGUCGCAGCCCCUGUCAGAUUCUGGUGAGUCUGCGAAUUCUGCUGUAUGUCUC,0.05
17,UAACAGGGGGCCUCAGCAGAGGCGUACACGUCGCAGCCCCUGUCAGGCUCUGGUGAGUCUGCGAAUUCUGCUGUAUAUCUC,0.32
